Laboratory results reported in the supplement of paper PMC3334620.
In all, about 33,000 sequences were measured (“E-score (-0.5 to 0.5)”: median about -0.016, highest 2% from about 0.31 on). This is one part of the list.

Each sequence was assayed against Cst6 (UniProt P40535) (assay: PBM E-score (8-mer binding enrichment) (E-score (-0.5 to 0.5)); higher = stronger / more preferred TF binding; most listed sequences are background and not binding sites). Conditions: protein concentration: 200 nM; construct: GST-DNA-binding domain.
Procedure, shortened: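 Yeast transcription factors carrying a GST tag, as full-length proteins or DNA-binding domains, were produced by PURExpress in vitro transcription/translation. About 100-200 nM protein was applied to universal all-10-mer Agilent arrays, double-stranded by primer extension on fresh or once-stripped slides. Bound protein was detected with fluorescent anti-GST, and scans were normalised with masliner. The Universal PBM Analysis Suite gave each ungapped eight-base word, pooled with its reverse complement, an E-score, a modified Wilcoxon-Mann-Whitney statistic.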

Q: How did the “PBM E-score” value turn out when TCAGACGA was run?
A: 0.0699

Q: How did the “PBM E-score” value turn out when CTAAGTAC was run?
A: 0.0904

Q: With AAGAGGAC as the sequence, how does the “PBM E-score” value read?
A: -0.249

Q: How did the “PBM E-score” value turn out when CACATCAC was run?
A: 0.217

Q: How did the “PBM E-score” value turn out when GCATAAAC was run?
A: 0.205

Q: For CACTAAGA, which “PBM E-score” value is on record?
A: 0.024

Q: With CGGGCCAA as the sequence, how does the “PBM E-score” value read?
A: -0.26

Q: For ATCCTGTC, which “PBM E-score” value is on record?
A: 0.119

Q: For ATAGCTCA, which “PBM E-score” value is on record?
A: 0.0523

Q: Which “PBM E-score” value does the source give for AACATAGT here?
A: 0.148

Q: For TGAAGCAA, which “PBM E-score” value is on record?
A: -0.112

Q: How did the “PBM E-score” value turn out when CCTGACTA was run?
A: 0.0718

Q: For ATAATCTC, which “PBM E-score” value is on record?
A: 0.166

Q: How did the “PBM E-score” value turn out when GTTTGTCA was run?
A: 0.184

Q: With ATGCCTAC as the sequence, how does the “PBM E-score” value read?
A: -0.21

Q: With AGAATTAG as the sequence, how does the “PBM E-score” value read?
A: 0.0556

Q: Which “PBM E-score” value does the source give for ATCGTTAG here?
A: 0.0972

Q: AATCGAGA was tested. Which “PBM E-score” value did it give?
A: -0.00458

Q: AACCTGCT was tested. Which “PBM E-score” value did it give?
A: -0.108

Q: With CCGCGCTC as the sequence, how does the “PBM E-score” value read?
A: -0.0887

Q: How did the “PBM E-score” value turn out when CATTTACG was run?
A: 0.178

Q: With GGTCTTTA as the sequence, how does the “PBM E-score” value read?
A: -0.0126

Q: For ATGCGAAC, which “PBM E-score” value is on record?
A: 0.0217

Q: For ATGCGTTA, which “PBM E-score” value is on record?
A: 0.0442

Q: CGTAGTAG was tested. Which “PBM E-score” value did it give?
A: 0.0995

Q: Which “PBM E-score” value does the source give for ATACGGAG here?
A: 0.00023

Q: How did the “PBM E-score” value turn out when ATTTCGAG was run?
A: 0.0911

Q: How did the “PBM E-score” value turn out when AATAGCAA was run?
A: 0.156

Q: Which “PBM E-score” value does the source give for GAATCGCA here?
A: -0.237

Q: CGTAGCGC was tested. Which “PBM E-score” value did it give?
A: -0.144

Q: For GCTTCTTA, which “PBM E-score” value is on record?
A: 0.124

Q: ACAAGACA was tested. Which “PBM E-score” value did it give?
A: 0.164

Q: ACCGATAC was tested. Which “PBM E-score” value did it give?
A: -0.0522

Q: How did the “PBM E-score” value turn out when AGGGGCAG was run?
A: -0.284

Q: AAAAGCAA was tested. Which “PBM E-score” value did it give?
A: 0.168

Q: For ATCCCGAC, which “PBM E-score” value is on record?
A: -0.078

Q: Which “PBM E-score” value does the source give for ATTGGTAG here?
A: 0.0186

Q: For GCCGTAGA, which “PBM E-score” value is on record?
A: 0.187

Q: How did the “PBM E-score” value turn out when GGTAAGTA was run?
A: 0.077

Q: With AAGTCACG as the sequence, how does the “PBM E-score” value read?
A: 0.0378

Q: ATAATCCC was tested. Which “PBM E-score” value did it give?
A: -0.053

Q: CAAAATCC was tested. Which “PBM E-score” value did it give?
A: 0.192

Q: For ATAACCAA, which “PBM E-score” value is on record?
A: 0.213

Q: Which “PBM E-score” value does the source give for AGCCACAA here?
A: -0.0333

Q: How did the “PBM E-score” value turn out when CAGTTTAC was run?
A: 0.0349

Q: With AGTTTAGC as the sequence, how does the “PBM E-score” value read?
A: -0.0767

Q: For AATGCACG, which “PBM E-score” value is on record?
A: 0.0682

Q: Which “PBM E-score” value does the source give for GACCTCGC here?
A: -0.0281

Q: How did the “PBM E-score” value turn out when GAAGACAC was run?
A: 0.0869

Q: For CCGATGGA, which “PBM E-score” value is on record?
A: -0.168

Q: With CGTTTAAA as the sequence, how does the “PBM E-score” value read?
A: 0.187

Q: Which “PBM E-score” value does the source give for AGAGTCGG here?
A: -0.0891

Q: Which “PBM E-score” value does the source give for TCTACGCA here?
A: 0.193

Q: With GAACTCGA as the sequence, how does the “PBM E-score” value read?
A: -0.00239

Q: CACCAATG was tested. Which “PBM E-score” value did it give?
A: -0.013

Q: Which “PBM E-score” value does the source give for AGAAAAGA here?
A: 0.112

Q: Which “PBM E-score” value does the source give for CGAAGTTC here?
A: 0.00463

Q: For AACTTGCC, which “PBM E-score” value is on record?
A: -0.017

Q: With AACCCGTG as the sequence, how does the “PBM E-score” value read?
A: -0.209

Q: How did the “PBM E-score” value turn out when TCTAAGCA was run?
A: 0.112

Q: For AATAGTGG, which “PBM E-score” value is on record?
A: -0.149

Q: How did the “PBM E-score” value turn out when AAAAATCT was run?
A: 0.175

Q: For GCAACCGA, which “PBM E-score” value is on record?
A: -0.185

Q: How did the “PBM E-score” value turn out when GGATGTGA was run?
A: -0.0834

Q: Which “PBM E-score” value does the source give for CGGTCGGC here?
A: -0.374

Q: Which “PBM E-score” value does the source give for AGAGTTAA here?
A: 0.0356

Q: GAACCCGC was tested. Which “PBM E-score” value did it give?
A: -0.304

Q: How did the “PBM E-score” value turn out when AACGAGGA was run?
A: -0.0303

Q: For GGAATTCC, which “PBM E-score” value is on record?
A: -0.17

Q: How did the “PBM E-score” value turn out when AACTATAG was run?
A: -0.171

Q: How did the “PBM E-score” value turn out when GGTGCACC was run?
A: -0.13

Q: For CAGAATCA, which “PBM E-score” value is on record?
A: 0.137

Q: How did the “PBM E-score” value turn out when CTCGACCA was run?
A: -0.258

Q: CCATGCGC was tested. Which “PBM E-score” value did it give?
A: -0.195

Q: AATTGGAC was tested. Which “PBM E-score” value did it give?
A: -0.0118

Q: With ACGCAGTC as the sequence, how does the “PBM E-score” value read?
A: -0.165

Q: GGCTACGA was tested. Which “PBM E-score” value did it give?
A: 0.0593

Q: For AGGACCCA, which “PBM E-score” value is on record?
A: -0.348

Q: Which “PBM E-score” value does the source give for CATCATCC here?
A: 0.345

Q: How did the “PBM E-score” value turn out when AATGTACA was run?
A: 0.152

Q: How did the “PBM E-score” value turn out when CCTAGTAA was run?
A: -0.194

Q: Which “PBM E-score” value does the source give for ATTGCTCG here?
A: -0.157

Q: CCGTCTAC was tested. Which “PBM E-score” value did it give?
A: 0.0417

Q: CTTTCAAA was tested. Which “PBM E-score” value did it give?
A: 0.168

Q: With CACGCCTC as the sequence, how does the “PBM E-score” value read?
A: -0.0843

Q: Which “PBM E-score” value does the source give for CCGAGGCA here?
A: -0.00896

Q: How did the “PBM E-score” value turn out when AAACGGAT was run?
A: 0.222

Q: Which “PBM E-score” value does the source give for GCCGAATA here?
A: 0.064

Q: For GCACTTAA, which “PBM E-score” value is on record?
A: 0.143

Q: With ACCTGACT as the sequence, how does the “PBM E-score” value read?
A: -0.0496

Q: With GTCATAGA as the sequence, how does the “PBM E-score” value read?
A: 0.411

Q: With CCGTGAAG as the sequence, how does the “PBM E-score” value read?
A: -0.216

Q: ATTGGTGG was tested. Which “PBM E-score” value did it give?
A: 0.0879

Q: With ACGTACAT as the sequence, how does the “PBM E-score” value read?
A: 0.289

Q: CTTAATCC was tested. Which “PBM E-score” value did it give?
A: -0.201

Q: CATCGGTA was tested. Which “PBM E-score” value did it give?
A: -0.0604

Q: GCAGTCCC was tested. Which “PBM E-score” value did it give?
A: -0.297

Q: How did the “PBM E-score” value turn out when GGGGTGAA was run?
A: -0.178

Q: Which “PBM E-score” value does the source give for GTTCTTAA here?
A: 0.0411

Q: With CTTTCTGC as the sequence, how does the “PBM E-score” value read?
A: 0.0175

Q: For CCGGTCCA, which “PBM E-score” value is on record?
A: -0.363

Q: Which “PBM E-score” value does the source give for AGCTTAGG here?
A: -0.105

Q: For ACCTAGAC, which “PBM E-score” value is on record?
A: -0.163

Q: With CAGGTCCG as the sequence, how does the “PBM E-score” value read?
A: -0.291

Q: Which “PBM E-score” value does the source give for AGTAGGTC here?
A: -0.102

Q: For AGGTCCCA, which “PBM E-score” value is on record?
A: -0.0716

Q: How did the “PBM E-score” value turn out when CCAGGTGC was run?
A: -0.0722

Q: CGGGGGAA was tested. Which “PBM E-score” value did it give?
A: -0.255

Q: How did the “PBM E-score” value turn out when AGTAGGAA was run?
A: -0.0518
